Experimental data published in the RNAGym collection of RNA variant scans (doi:10.1093/nar/gkz1192).
Read counts are not given, so values of variants with three or more changes are uncertain.

B1: CPEB3 Ribozyme (parent)
chain: UAACAGGGGGCCACAGCAGAAGCGUUCACGUCGCAGCCCCUGUCAGAUUCUGGUGAAUCUGCGAAUUCUGCUGUAUAUCUC

Variants of: B1
Assay: self-cleavage, relative activity (ratio to wild type); higher = more cleavage; in vitro, sequencing
Procedure, shortened: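 Barcoded CPEB3 ribozyme mutants, produced by rounds of error-prone PCR, self-cleaved while being transcribed with T7 RNA polymerase for 5 hours at 37°C and during a subsequent 15 min DNase I step before EDTA was added. Sequencing of template-switched cDNA on Illumina gave cleaved and total reads, and DNA sequencing assigned barcodes to variants. Each variant's relative activity is its cleaved/total read fraction divided by the unmutated ribozyme's fraction, averaged across three batches. A variant needed a minimum of 5 reads.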

Row | Variant | self-cleavage
1 | UAACAGGGGACCACAGCAGACGCGUUCACGUCUCAGCCCCUGUCAGAUCCUGGUGAAUCUGCGAGUCCUGCAGUAUAUCUC [G10A A21C G33U U49C A65G U67C U72A] | 0.04
2 | UAACAGGGGACCACAGCAGAGGCGUUCUCGUCGCAGCCCCUGUCAGAUUCUGGUGAAUCUGCGUAUUCAGCUGUAUACCUC [G10A A21G A28U A64U U69A U78C] | 0.04
3 | UAACAGGGGACCACAGCAGAGGCGUUCUCGUCGCAGCCCCUGUCAGAUUCUGGUGAAUCUGCGAAUUCAGCUGUAUAUCUC [G10A A21G A28U U69A] | 0.14
4 | UAACAGGGGACCACAGCAGAGGCGUUCACGUCGCUGCCCCUGUCAGGUUCUGGUGAAUCUGCGAAUUCUGCUGUAUAUCUC [G10A A21G A35U A47G] | 0.04
5 | UAACAGGGGACCACAGCAGAGGAGUUCACGUCGCUGCCCCUGUCAGAUUCUGGUGAAUCUGCGAAUUCUGCUGUAUAUCUC [G10A A21G C23A A35U] | 0.47
6 | UAACAGGGGACCACAGCAGAGGCGUUCACGUCGCAGCUCCUGUCAGAUUCUGGUGGAUCUGCGAAUUCUGCUGUAUAUCUC [G10A A21G C38U A56G] | 0.11
7 | UAACAGGGGACCACAGCAGAGGCGCUCACGUCGCAGCCCCUGUCAGACUCUGGUGAAUCUGCGAAUUCUGCUGUAUAUCUC [G10A A21G U25C U48C] | 0.29
8 | UAACAGGGGACCACAGCAGAGGCGUUCACGUCGCAGCCCCUGUCAGAUACUGGUGAAUCAGCGAAUUCCGCUGUAUAUCUC [G10A A21G U49A U60A U69C] | 0.09
9 | UAACAGGGGACCACAGCAGAGGCGUUCACGUCGCAGCCCCUGUCAGAUUCCGGUGAAUCUCCGAAUUCUGCUGUAUAUCUC [G10A A21G U51C G61C] | 0.13
10 | UAACAGGGGACCACAGCAGAUGCGUUCACGUCGCAGCCCCUGUUAGAUUCUGGUGAAUCUGCGAAUUCUGCUGUGUAUCUC [G10A A21U C44U A75G] | 0.04
11 | UAACAGGGGACCACAGCAGAUGCGUUCACGCCGCAGCCCCUGUCAGAUUCUAGUGAAUCUGCGGAUUCUGCUGUAUAUCUC [G10A A21U U31C G52A A64G] | 0.04
12 | UAACAGGGGACCACAGCAGAUGCGUUCACGUCGCAGCCCCUGCCAGAUUCUGGUGAAUCUGCGAAUUCUGCUGUAUAUCUC [G10A A21U U43C] | 0.31
13 | UAACAGGGGACCACAGCAGAUGCGUUCACGUCGCAGCCCCUGUCAGAUGCUGGUGAAUCUGCGAAUUCUGCUGUAUAUCUC [G10A A21U U49G] | 0.06
14 | UAACAGGGGACCACAGCAGAUGCGUUCACGUCGCAGCCCCUGUCAGAUUCUGGUGAAUCUGCGAAUUCUGCUGUAUAUCCC [G10A A21U U80C] | 0.08
15 | UAACAGGGGACCACAGCAGAAGCGUUCCCGUCGCAGCCCCUGUCAGAUUCUGGUGAAUCUGCGAUUUCUGCUGUAUAUCCC [G10A A28C A65U U80C] | 0.06
16 | UAACAGGGGACCACAGCAGAAGCGUUCGCGUCGCAGCCCCUGUCCGAUUCUGGUGGAUCUGCGAAUUCUGCUGUAUAUCUC [G10A A28G A45C A56G] | 0.16
17 | UAACAGGGGACCACAGCAGAAGCGUUCGCGUCGCAGCCCCUGUCAGAUUCUGGUGAAUCUGCGUAUUCUGCUGCAUAUCUC [G10A A28G A64U U74C] | 0.18

Row | Variant | self-cleavage
18 | UAACAGGGGACCACAGCAGAAGCGUUCGCGUCGCAGCCCAUGUCAGAUUCUGGUGGAUCUGCGAAUUCUGCUGUAUACCUC [G10A A28G C40A A56G U78C] | 0.14
19 | UAACAGGGGACCACAGCAGAAGCGUUCGCGCCGCAGCCCCUGUCAGACUCUGGUGAAUCUGCGAAUUCCGCUGCAUAUCUC [G10A A28G U31C U48C U69C U74C] | 0.05
20 | UAACAGGGGACCACAGCAGAAGCGUUCGCGUCGCAGCCCCCGUCAGAUUCUGGUGAAUCUGCGGAUCCUGCUGUAUAUCUC [G10A A28G U41C A64G U67C] | 0.04
21 | UAACAGGGGACCACAGCAGAAGCGUUCGCGUCGCAGCCCCUGUCAGAUUCAGGUGAAUCUGCGAAUUCUGCUGUAUAUCUC [G10A A28G U51A] | 0.19
22 | UAACAGGGGACCACAGCAGAAGCGUUCGCGUCGCAGCCCCUGUCAGAUUCUGGUGAAUCUGCGAAUUCCGCAGUAUAUCUC [G10A A28G U69C U72A] | 0.25
23 | UAACAGGGGACCACAGCAGAAGCGUUCUCGUCGCAGCCCUUGUCAGAUUCUGGUGAAUCUGCGGAUUCUGCUGUAUAUCUC [G10A A28U C40U A64G] | 0.13
24 | UAACAGGGGACCACAGCAGAAGCGUUCUCGUCGCAACCCCUGUCAGAUUCUGGUGAAUCUGCGAAUUCUGCUGUAUAUCUC [G10A A28U G36A] | 0.05
25 | UAACAGGGGACCACAGCAGAAGCGUUCUCGUCGCAGCCCCCGUCAGAUCCUGGUAAAUCUGCGAAUUCUGCUGUAUAUCUC [G10A A28U U41C U49C G55A] | 0.05
26 | UAACAGGGGACCACAGCAGAAGCGUUCUCGUCGCAGCCCCUGUCAGAUUCUGGUGAAUCUGCGAAUCCUGCUGUACUUCUC [G10A A28U U67C U76C A77U] | 0.02
27 | UAACAGGGGACCACAGCAGAAGCGUUCACGUCGCGGCCCCUGUCAGAUUCUGGUGAAUCUGCGAGUUCCGCUGUAUAUCUC [G10A A35G A65G U69C] | 0.08
28 | UAACAGGGGACCACAGCAGAAGCGUUCACGUCGCGCCCCCUGCCAGAUCCUGGUGAAUCUGCGAAUUCUGCUGUAUAUCUC [G10A A35G G36C U43C U49C] | 0.17
29 | UAACAGGGGACCACAGCAGAAGCGUUCACGUCGCGGCCCCUGCCAGAUUCUGGUGAAUCUGCGAAUUCUGCUGUAUAUCUC [G10A A35G U43C] | 0.49
30 | UAACAGGGGACCACAGCAGAAGCGUUCACGUCGCUGCCCCUGUCAGAUUCUGGUGAAUCUGCGAAUUCUGCUGUAUGUCUC [G10A A35U A77G] | 0.24
31 | UAACAGGGGACCACAGCAGAAGCGUUCACGUCGCUGCCCCAGUCAGAUUCUGGUGAAUCUGCGAAUUCAGCUGUAUAUCCC [G10A A35U U41A U69A U80C] | 0.03
32 | UAACAGGGGACCACAGCAGAAGCGUUCACGUCGCUGCCCCUGUCAGAUUCUGGUGAAUCUGCGAACCCUGCUGUAUAUCUC [G10A A35U U66C U67C] | 0.07
33 | UAACAGGGGACCACAGCAGAAGCGUUCACGUCGCAGCCCCUGUCUGAUUCUGGUGAAUCUGCGUAUUCAGCCGUAUAUCUC [G10A A45U A64U U69A U72C] | 0.08
34 | UAACAGGGGACCACAGCAGAAGCGUUCACGUCGCAGCCCCUGUCUGAUUCUGGUGAAUCUGCGAAUUCUGCUGUACAUCUC [G10A A45U U76C] | 0.21
